Patent US20230348587A1 (Astellas, published 2023)

Target: T1, TSPAN8 Protein, Human, Recombinant (SinoBiological, 15683-H07H) (human, UniProt P19075 110-205)
T1 construct: domain: LEL; Bought; also called LEL protein of TSPAN8; LEL region peptide of TSPAN8
T1 sequence (looked up): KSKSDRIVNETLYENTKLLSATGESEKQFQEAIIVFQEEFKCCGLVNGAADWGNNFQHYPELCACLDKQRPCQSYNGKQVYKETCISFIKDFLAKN
Assay: ELISA, antigen coated at 1 µg/mL, detection with Goat Anti-Human Kappa-HRP, chemiluminescence
Protocol: Specifically, 1 µg/mL of TSPAN8 Protein, Human, Recombinant (SinoBiological, 15683-H07H) or Human CellExp CD3 epsilon & CD3 delta Heterodimer, Human Recombinant (BioVision, P1183-10) diluted with PBS was added to a 384-Well White Plates, MaxiSorp (Nunc, 460372) at 30 µL/well. After standing still at 4° C. overnight, supernatant was removed, and Blocking One (Nacalai Tesque, 03953-95) was added thereto at 120 µL/well. After standing still at room temperature for 1 hour, supernatant was removed, and the resultant was washed with TBST buffer (Thermo Fisher Scientific, 28360) twice. The anti-TSPAN8(16B11)-anti-CD3 bispecific antibody diluted with TBST containing 10% Blocking One was added thereto at 30 µL/well, followed by standing still at room temperature for 1 hour. The resultant antibody solution was removed, washed with TBST buffer twice, Goat Anti-Human Kappa, Mouse ads-HRP (Southern Biotech, 2061-05) diluted by 5000 times with TBST containing 10% Blocking One was added thereto in an amount of 30 µL/well, and the resultant was stand still at room temperature for 30 minutes. […] A reaction was performed at room temperature for 15 minutes, and then chemiluminescence was measured with ARVO X3 (Perkin Elmer).

B1: anti-TSPAN8(16B11)-anti-CD3 bispecific antibody (bispecific antibody, human IgG1, kappa, L234A L235A, N297G)
heavy: QVQLVESGGGVVQPGGSLRLSCAASGFTFSSYGMHWVRQAPGKGLEWVAVIWYDGRNKYYADSVKGRFTISRDNSKNTLYLQMNSLRAEDTAVYYCTRDHSGSGSYYIDYWGQGTLVTVSSASTKGPSVFPLAPSSKSTSGGTAALGCLVKDYFPEPVTVSWNSGALTSGVHTFPAVLQSSGLYSLSSVVTVPSSSLGTQTYICNVNHKPSNTKVDKKVEPKSCDKTHTCPPCPAPEAAGGPSVFLFPPKPKDTLMISRTPEVTCVVVDVSHEDPEVKFNWYVDGVEVHNAKTKPREEQYGSTYRVVSVLTVLHQDWLNGKEYKCKVSNKALPAPIEKTISKAKGQPREPQVYTLPPSRDELTKNQVSLSCAVKGFYPSDIAVEWESNGQPENNYKTTPPVLDSDGSFFLVSKLTVDKSRWQQGNVFSCSVMHEALHNHYTQKSLSLSPGK
light: EIAMTQSPATLSVSPGERATLSCRASQSVSSNLAWYQQKPGQAPRLLIYGASTRATGLPARFSGSGSGTEFTLTISSLQSEDFAVYYCQQYNNFWTFGQGTKVEIKRTVAAPSVFIFPPSDEQLKSGTASVVCLLNNFYPREAKVQWKVDNALQSGNSQESVTEQDSKDSTYSLSSTLTLSKADYEKHKVYACEVTHQGLSSPVTKSFNRGEC
scFv: EVQLVESGGGLIQPGGSLRLSCAASGFTFNTYAMNWVRQAPGKCLEWVARIRSKYNNYATYYADSVKDRFTISRDDSKSTLYLQMNNLRAEDTAVYYCVRHGNFGNSYVSWFAYWGQGTLVTVSSGKPGSGKPGSGKPGSGKPGSQAVVTQEPSLTVSPGGTVTLTCRSSTGAVTTSNYANWVQQKPGQAPRGLIGGTNKRAPGTPARFSGSLLGDKAALTLSGAQPEDEAEYYCALWYSNLWVFGCGTKVTVL[no letters for human IgG1 Fc with C220S L234A L235A N297G T366W (EU numbers)]
notes: LALA, N297G, T366W); also called anti-TSPAN8/anti-CD3 bispecific antibody; anti-TSPAN8-anti-CD3 bispecific antibody
In the case of B1, the EC50 is reported as 1 µg/mL and 8.1 nM.

Values joined by “and” are separate entries in the source; they are usually repeats but may differ in a detail not shown here. Identical values can stand only once.
